The experiment has as its system NCI-H322M lung. The experiment in a line: NCI tumour cell line growth inhibition, 48 h.

Values joined by “and” are separate entries in the source; they are usually repeats but may differ in a detail not shown here. Identical values can stand only once.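 Briefly, cells in 96-well plates were exposed to five compound concentrations for 48 h, and endpoints were estimated by linear interpolation. GI50 marks 50% less growth. TGI: concentration producing complete growth inhibition.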

With `COc1cc2cc(C(=O)N3C[C@@H](CCl)c4c3cc(OC(=O)N(CCC(=O)N3CCN(C)CC3)[C@H]3CCSSC3)c3ccccc43)[nH]c2c(OC)c1OC`, the GI50 is 0.211 µM and 0.235 µM; the TGI was 0.888 µM and 2.4 µM.

Consider `Cn1cc(-c2cc(N)n3nc(-c4c[nH]c5ccc(Cl)cc45)cc3n2)c2cc(Br)cnc21`, for which the GI50 is 3.47 µM and the TGI is 22.8 µM.

Regarding `Fc1cccc(CNc2nc(SCCN3CCOCC3)nc3c2cnn3CC(Cl)c2ccc(Br)cc2)c1` (configuration not stated), the GI50 was above 100 µM and the TGI was above 100 µM.

Take `Clc1ccc(/C=N/Nc2ncnc3sc4c(c23)CCN(Cc2ccccc2)C4)cc1`: the GI50 is 22.9 µM and the TGI is above 100 µM.

Turning to `Oc1ccc(Cl)c(Nc2ncnc3c2cnn3CC(Cl)c2ccc(Br)cc2)c1` (configuration not stated), the GI50 is 16.3 µM and the TGI stood at 38.5 µM.

Take `Cc1occc1C(=O)NN1C(=O)/C(=C/C=C/c2ccc([N+](=O)[O-])o2)SC1=S`: the GI50 is 14.3 µM and the TGI turned out to be 27.3 µM.

(Values after PubChem BioAssay (NCI).)
